Laboratory results reported in paper PMC12040169 (PLOS Biology, 2025).
Where two headings read alike, the source gives them in different places. Some of the results follow.

Test system: T1, C. trachomatis L2/434/Bu expressing GFP (CTL2-GFP)
T1 construct: L2/434/Bu GFP intracellular growth in HeLa cells
Parameters: species or system HeLa; C. trachomatis total inclusion area by high-content imaging, normalised to DMSO
Summary of the method: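 Bulk GFP and resorufin signals were read first. Wells were then fixed, stained with Hoechst and imaged to detect GFP inclusions and host nuclei. MICs followed the previously described calculation.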

[1] = total inclusion area; 28.5 h, 10 µM; inhibitor

SMILES | % of control remaining [1] | % of control remaining (total inclusion area, 28.5 h, 10 µM, inhibitor)
Cc1cc(OCc2nnc(SCC(=O)N3CCN(c4ccccc4)CC3)n2C)ccc1Cl [CBK268611] | 92.5773 | 
COc1cccc(C(NC(=O)C2COc3ccc(OC)cc3C2)c2ccccc2)c1 (centres unmarked) [CBK285713] | 114.834 | 
CC(=O)Oc1ccc2c(=O)cc(N(C)C)oc2c1C [CBK016581] | 93.1197 | 
C=CCN1C(=O)CC2(C1=O)C(=O)N(CCCN1C(=O)c3ccccc3C1=O)c1ccc(Cl)cc12 (centres unmarked) [CBK075443] | 122.097 | 
COc1ccc(C)cc1C1(CNC(=O)C2CC2C(=O)O)CCOCC1 (centres unmarked) [CBK304492] | 32.8595 | 
CCc1c(C)nc2c(C)cccc2c1SCC(=O)O [CBK263554] | 88.2149 | 
O=C(O)CCC(=O)Nc1ccc(-c2nc3cc(C(=O)c4ccccc4)ccc3[nH]2)cc1 [CBK267401] | 98.7337 | 
CN(C)C(=O)CN1C(=O)CC2(C1=O)C(=O)N(CC(=O)O)c1ccc(F)cc12 (centres unmarked) [CBK076119] | 99.7716 | 
O=C1CNC(=O)C2(C/C=C/C[C@H]3COCC[C@H]3N1)CCN(C(=O)Cc1cccnc1)CC2 [CBK292068] | 101.62 | 
Clc1ccc(CN2CCCN(c3cc(OC4CCCCC4)ncn3)CC2)cc1Cl [CBK083338T] | 51.9501 | 
Nc1nc(CSCCO)nc(Nc2ccc(F)cc2)n1 [CBK265542] | 109.869 | 
CCCc1[nH]nc(O)c1Cc1ccccc1CS(=O)(=O)c1ccccc1 [CBK074347] | 92.8812 | 
NCc1ccc(C(=O)N(CCc2cc(C(F)(F)F)cc(C(F)(F)F)c2)c2ccc(Cl)c(Cl)c2)cc1 [CBK008632T] | 30.6049 | 
CN1C(=O)CC(NCc2ccc(S(N)(=O)=O)cc2)C1=O (centres unmarked) [CBK262352] | 104.361 | 
CCN(CC)C(=O)[C@@H]1CCCN(C2CCN(C(=O)c3c4ccccc4cc4ccccc34)CC2)C1 [CBK066966C] | 89.9903 | 
CC1(C)CC(=O)C2=C(C1)Nc1ccccc1N(CC(=O)O)C2c1cccs1 (centres unmarked) [CBK286597] | 84.7115 | 
Cc1cc(S(=O)(=O)Nc2cc(C3CC3)nn2C)c(C)cc1Cl [CBK043994] | 80.9483 | 
CCc1c(C)nc2c(C(=O)NCCCOC)cnn2c1C [CBK162149] | 103.491 | 
O=C(NC(c1ccc(-c2ccccc2)cc1)c1cnccn1)C1CCN(CCc2ccc(F)cc2)CC1 (centres unmarked) [CBK147981] | 99.3081 | 
Cc1ccc(S(=O)(=O)NC(C)C(=O)Nc2cc(-c3nc4ccccc4[nH]3)ccc2C)cc1 (centres unmarked) [CBK110320] | 99.78 | 
COc1ccc(-c2nnc([C@H]3CCN(C(=O)C4CC4)C3)o2)cc1 [CBK289409] | 96.3516 | 
CCOC(=O)c1cnn2c(O)cc(CN(Cc3cccs3)C3CC3)nc12 [CBK305625] | 77.5732 | 
Cc1ccc(CN(CCCN(C)C)Cc2cccc(O)c2)o1 [CBK283173] | 67.6252 | 
O=C(Nc1cccnc1)c1cnc2cc(C(F)(F)F)ccc2c1O [CBK107474T] |  | 84.073
COc1ccc(-c2noc(CNC(=O)Nc3ccc(F)cc3)n2)cc1OC [CBK269784] | 104.47 | 
O=C(Nc1cccc(C(=O)O)c1)/C(=C\c1ccc2c(c1)OCO2)NC(=O)c1ccccc1Cl [CBK263746] | 104.68 | 

SMILES | % of control remaining [1] | % of control remaining (total inclusion area, 28.5 h, 10 µM, inhibitor)
CCCc1cc(=O)nc(N/C(=N\C(=O)c2ccccc2)Nc2ccc3c(c2)OCCO3)[nH]1 [CBK266485] | 78.829 | 
CC(C)OC(=O)c1cccnc1N1CCN(CCCC(c2ccc(F)cc2)c2ccc(F)cc2)CC1 [CBK025340C] | 56.0986 | 
CCn1c2c(c(=O)[nH]c1=O)C(c1ccccc1)C1=C(COC1=O)N2 (centres unmarked) [CBK287704] | 122.943 | 
COc1ccc2c(c1)N1CCCN=C1N2C [CBK011358C] | 89.3426 | 
COc1ccc([N+](=O)[O-])cc1COc1ccc2c(C(F)(F)F)cc(=O)oc2c1 [CBK265173] | 100.346 | 
CC(Sc1nc(C2CC2)n(-c2ccccc2)n1)C(=O)N1CCNC1=O (centres unmarked) [CBK297144] | 83.0064 | 
Cc1cc(-c2ccccc2)nc(SCC(=O)Nc2nnc(C)s2)n1 [CBK058194] | 93.4624 | 
OC1(c2cccnc2F)CCN(Cc2c(F)cccc2F)CC1 [CBK283149] | 79.253 | 
Cc1ccc(S(=O)(=O)NCC(=O)Nc2ccc(Cl)nc2)cc1 [CBK091355] | 95.1259 | 
COc1ccc(C2C(C(C)=O)=C(O)C(=O)N2CCCC(=O)O)cc1 (centres unmarked) [CBK263774] | 103.152 | 
CS(=O)(=O)N1CC2(CCN(CCCC#N)CC2)c2ccccc21 [CBK084014] | 97.662 | 
O=c1[nH]c2ncc(-c3ccsc3)nc2n1CC1CCOCC1 [CBK064293] | 93.089 | 
O=C(NC(NCc1ccco1)C(Cl)(Cl)Cl)c1ccc(Br)cc1 (centres unmarked) [CBK262174] | 85.7705 | 
COCCNC(=O)c1cc(-c2ccc(Cl)cc2)cnc1NS(C)(=O)=O [CBK106421] | 114.685 | 
COc1ccc(CCN2C(=O)c3ccccc3C2(O)c2ncc[nH]2)cc1OC (centres unmarked) [CBK262717] | 90.9688 | 
CC(C)c1noc(N2CCC(Oc3ccc(-c4ccc(S(C)(=O)=O)cc4)cn3)CC2)n1 [CBK158821] | 39.7808 | 
Cc1cccc(C(=O)Nc2ccccc2C(=O)N2CCN(C)CC2)c1 [CBK268565] | 86.7251 | 
Cc1nn(C)c(Cl)c1S(=O)(=O)Nc1cccc(-c2nnn[nH]2)c1 [CBK062127] | 97.6733 | 
O=C(Nc1cccc(F)c1)N(Cc1cccnc1)CC1CCCO1 (centres unmarked) [CBK304065] | 114.437 | 
O=C(Nc1ccc(S(=O)(=O)Nc2nccs2)cc1)C1CC(=O)N(c2ccccc2)C1 (centres unmarked) [CBK264732] | 51.7441 | 
Cc1cccc(OC(=O)C2C(c3ccccc3)C(C(=O)O)C2c2ccccc2)c1 (centres unmarked) [CBK263843] | 81.3779 | 
CN1CCN(S(=O)(=O)c2ccc(-c3cc(C(F)(F)F)on3)s2)CC1 [CBK057780] | 116.686 | 
COc1cc(Cl)cc(/C=N/Nc2nc(Nc3ccc(C)c(Cl)c3)nc(N3CCOCC3)n2)c1O [CBK262436] | 121.409 | 
CN(C)c1ccc(CCNS(=O)(=O)c2ccc3[nH]c(=O)[nH]c(=O)c3c2)cc1 [CBK285938] | 108.553 | 
Cc1c(S(=O)(=O)Nc2cccc(C(=O)OCC3CCCN(C)C3)c2)sc2ccc(Cl)cc12 (centres unmarked) [CBK167735G] | 79.3859 | 
Cc1noc(C)c1NC(=O)Cc1cccnc1 [CBK200391] | 84.9111 | 

SMILES | % of control remaining [1] | % of control remaining (total inclusion area, 28.5 h, 10 µM, inhibitor)
Cc1ccc(C(CC(=O)O)NC(=O)c2ccc(S(=O)(=O)N3CCCC(C)C3)cc2)cc1 (centres unmarked) [CBK295345] | 108.904 | 
Cc1ccc(N2CC(c3nnc(N)o3)CC2=O)cc1 (centres unmarked) [CBK288061] | 94.9372 | 
Cc1cc2c(cc3c(=O)n(CC(=O)N4CCCCCC4)nc(C)n32)o1 [CBK283591] | 48.9732 | 
O=C(NC(=S)Nc1ccc(-c2nc3ncccc3o2)cc1)c1ccc2c(c1)OCCO2 [CBK265812] | 111.191 | 
O[C@H]1[C@H](NCc2ccco2)[C@H]2CO[C@H](O2)[C@@H]1N1CCCCC1 [CBK288825] | 126.216 | 
COCCn1cc(C(=O)N2CCCC2c2ccncc2)c2ccccc21 (centres unmarked) [CBK305286] | 61.2204 | 
O=C(c1ccccc1NS(=O)(=O)c1ccc(C(F)(F)F)cc1[N+](=O)[O-])N1CCOCC1 [CBK043353] | 86.0409 | 
O=C(C1CC2C=CC1C21CC1)N1CCC(Oc2ccccc2F)CC1 (centres unmarked) [CBK282179] | 99.349 | 
CCOC(=O)CCCNC(=O)N1CCN(c2ccccc2)CC1 [CBK155209] | 105.361 | 
O=C(O)/C=C/c1cccc(/C=C/C(=O)O)c1 [CBK261650] | 105.883 | 
COc1ccc(CCNC(=O)CCn2cncn2)cc1 [CBK305881] | 86.2233 | 
O=C1CC(SCc2nc3ccccc3[nH]2)C(=O)N1c1cccc(Cl)c1 (centres unmarked) [CBK266731] | 118.506 | 
COc1ccc(-c2cc(=O)[nH]c(N3CCN(C)CC3)n2)cc1 [CBK003849] | 72.0871 | 
COc1cc(-c2cncc(Nc3cccc(C(F)(F)F)c3)n2)cc(OC)c1OC [CBK065213] | 103.196 | 
CC(=O)NC(CC(=O)N1CCc2sccc2C1C)c1ccc(C)cc1 (centres unmarked) [CBK305378] | 72.2523 | 
O=[N+]([O-])c1ccc(Oc2ccccc2F)cc1 [CBK002532] | 92.7243 | 
Cc1ccnc(N2C(=O)c3ccc(C(=O)c4ccc5c(c4)C(=O)N(c4cc(C)ccn4)C5=O)cc3C2=O)c1 [CBK263041] | 86.2703 | 
O=S(=O)(Nc1cccc2[nH]ccc12)c1ccc(Br)cc1F [CBK153547] | 82.7135 | 
O=C(N/N=C/c1ccccc1O)c1ccn(Cc2ccc(Cl)cc2)n1 [CBK262770] | 87.9594 | 
O=C(N[C@H]1C2CCCCC2[C@@H]1c1ccccc1)c1cncnc1 (some centres unmarked) [CBK282949] | 96.1677 | 
Cc1cc(S(=O)(=O)N2CCCC2)ccc1OCC(=O)NCc1ccncc1 [CBK269886] | 110.351 | 
OCCCNCC(O)CN1c2ccccc2Sc2ccccc21 (centres unmarked) [CBK027632G] | 92.044 | 
COc1cc(-c2cc(Nc3ccc(N(C)C)cc3)ncn2)cc(OC)c1OC [CBK090945] | 13.6846 | 
Oc1cccnc1SCc1nc2ccccc2s1 [CBK016367] | 70.0459 | 
Cc1nccn1CCCn1cncc1-c1ccc2c(c1)CCC(C)N2C (centres unmarked) [CBK281811] | 106.726 | 
